Test results taken from PubChem BioAssay AID743279 (National Center for Advancing Translational Sciences (NCATS), 2014).
In all, about 360,000 compounds went through this assay and about 17,000 (4.7%) were called active. This list was built around the results that the source calls inconclusive (neither active nor inactive); the mix of calls is not that of the screen. Cut-off read from the data, not from the text of the source: active = activity change below about -50%; inconclusive = mostly about -30% to -49%; inactive = weaker than that.

assay: qHTS for Inhibitors of Inflammasome Signaling: IL-1-beta AlphaLISA Primary Screen; conditions: THP-1 LPS/ATP IL-1B secretion, 16 h; at 57.5 µM, active compounds read low
Outline: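 Secreted IL-1B measured by AlphaLISA bead assay after 16 h compound exposure of THP-1 cells; compounds (final up to 57.5 uM) added 1 h before LPS (250 ng/mL) and ATP (1.25 mM) stimulation; lower signal means less secretion.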
% is set by controls: 0 for no effect and ±100 for the full control effect.

Activity change, inactive:
O=C(CCNC(=O)N1CC(=O)Nc2ccccc21)Nc1ccc(Cl)cc1 4.8%, COCCN(C(=O)COC(=O)CCOc1cc(C)ccc1C)c1c(N)n(Cc2ccccc2)c(=O)[nH]c1=O 0%, Cc1cc(NC(=S)N(Cc2ccc(Cl)cc2)Cc2ccc(C(=O)O)cc2)ccc1Cl 0%, CCOC(=O)c1csc(N)n1 5.19%, COc1ccc(NS(=O)(=O)c2cccc(C(=O)N3CCN(C(=O)c4ccco4)CC3)c2)cc1 41%, CCn1c(CC(=O)Nc2ccccc2F)nnc1SCC(=O)NC1CCCC1 3.93%, CC(C)NC(=O)C1(C)CCCN1C(=O)c1cc(C#N)cs1 (stereo unspecified) 22.4%, Cc1ccc(N(C(C)C(=O)N2CCCCC2)S(C)(=O)=O)cc1C (stereo unspecified) 11.5%, CSc1nc2sc3c(c2c(=O)n1C)CCCC3 24.8%, COc1ccccc1CNC(=O)C(=O)NCC1OCCN1S(=O)(=O)c1ccccc1 (stereo unspecified) 1.6%, CC(C)(C)c1ccc(C(O)CCCN2CCC(C(O)(c3ccccc3)c3ccccc3)CC2)cc1 (stereo unspecified) 3.37%, O=C(CSC1=NS(=O)(=O)c2cc(F)ccc2N1)NCCc1ccccc1 9.44%, CCOc1cccc(-c2c(C(=O)N/N=C/c3cccs3)nnn2-c2nonc2N)c1 -6.26%, O=C(NC1CC1)c1ccc(-c2ccc3nccn3c2)cc1 -17.9%, Cn1cc(S(=O)(=O)c2ccccc2)c(=O)c2cc(F)c(N3CCOCC3)cc21 -0.47%, C/C=C(\C)C(=O)NCCN1C2=NC[C@@H](C)N2C[C@H]1Cc1ccc(O)cc1 6.1%, CCN(CC)S(=O)(=O)c1ccc(C(=O)NCCOC(=O)c2ccc(F)cc2F)cc1 9.61%, Cc1ccc(NC(=O)c2ccc3c(=O)n4c(nc3c2)CCC4)cc1S(=O)(=O)N(C)C 11.1%, COc1ccc(CN2CC(C(=O)NCCc3ccc(C)cc3)CC2=O)cc1 (stereo unspecified) 16.8%, CCn1c2ccccc2c2cc(NC(=O)CC(C)=O)ccc21 0%, CS(=O)(=O)N1CCN(c2ccc(C(=O)NC34CC5CC(CC(C5)C3)C4)cc2[N+](=O)[O-])CC1 25.6%, Cc1cc(=O)[nH]c(SCc2cccc3cccnc23)n1 22.6%, O=C(NCc1ccccc1Cl)c1nnc(CS(=O)(=O)c2ccccc2)o1 -5.27%

Activity change, inconclusive:
CC(C)C[C@H]1CNC(=S)N1CC1CCN(CCCC2CCCC2)CC1 -48.3%, CC(=O)Oc1ccc2c(c1)Oc1cc(OC(C)=O)ccc1C21OC(=O)c2ccccc21 -35.8%, CC1CCN(c2nnc(-c3cccs3)c3ccccc23)CC1 -40.9%, COc1ccc(OC)c(-c2nn(-c3ccccc3)cc2C(=O)NCC(c2cccs2)N2CCOCC2)c1 (stereo unspecified) -30.4%, Cc1oc(C(C)(C)C)cc1C(=O)Nc1ccc(N2CCOCC2)cc1 -33.7%, COc1ccc(C(=O)Nc2ccc3oc(-c4cccnc4)nc3c2)cc1OC -37.5%, O=C(CSc1nnc(-c2cccs2)n1-c1ccccc1)N1CCCc2ccccc21 -30.1%, O=C(CNc1ccc(F)cc1Cl)Nc1cccc(S(=O)(=O)N2CCCCC2)c1 -41.2%, Cc1ccc(S(=O)(=O)N2CCC(=O)N(CCOC(=O)Nc3ccc(F)cc3)CC2)cc1 -35.9%, COc1cccc(C2CC(c3c(-c4ccccc4)c4cc(Cl)ccc4[nH]c3=O)=NN2S(C)(=O)=O)c1OC (stereo unspecified) -44.6%, O=S(=O)(c1ccc(Br)cc1)N1CCCN(Cc2ccccc2F)CC1 -39%, COc1cccc(SCC2(O)CCN(C(=O)c3ccc(Cl)cc3)CC2)c1 -34.8%, O=C(NCCN1C(=O)S/C(=C\c2ccccc2F)C1=O)C1CC(=O)N(Cc2ccccc2)C1 (stereo unspecified) -49.8%, COc1ccc2c(c1)sc1nc(-c3ccccc3)cn12 -45.6%, CCOc1cc(C2C(C#N)=C(N)Oc3n[nH]c(-c4ccccc4)c32)ccc1O (stereo unspecified) -32%, CCN1CCN(c2nc(Nc3cccc(C)c3)nc(N)c2[N+](=O)[O-])CC1 -43.4%, CCOC(=O)c1cc(NC(=O)Cc2ccc(S(=O)(=O)N3CCOCC3)s2)cc(C(=O)OCC)c1 -36.5%, CCOC(=O)C1CCN(CCC(=O)Nc2cccc(Cl)c2)CC1 -38.4%, CC(=O)NC(c1ccccc1)c1nc(-c2ccc(C)c(C)c2)cs1 (stereo unspecified) -41%, Cc1ccc(S(=O)(=O)N2CCC(NC(=O)c3cccc(C)c3)CC2)cc1 -41.7%, CCOC(=O)[C@H]1[C@H]2COc3ccc(Cl)cc3[C@@H]2N2C(=O)CN(Cc3ccc(C)cc3)C(=O)[C@@]12C -32.7%, COc1ccc(/C=N/NC(=O)CN2CCCCCCC2)c(C)c1C -41.9%, COc1cccc(CNC(=O)CN2C(=O)CCSc3ccc(S(=O)(=O)N4CCCC4)cc32)c1 -32.7%, CCOC(=O)Nc1ccc2c(c1)N(C(=O)N(CC)CC)c1ccccc1CC2 -32.7%, COc1cc(C2c3cc4c(cc3OC(NNC(N)=S)C2C)OCO4)cc(OC)c1OC (stereo unspecified) -43.3%, O=[N+]([O-])c1ccc(/C=N\N2CCN(Cc3ccccc3Cl)CC2)cc1 -33.1%, O=C(Nc1ccno1)Nc1ccc(Cl)cc1Cl -47.8%, Cc1ccc(S(=O)(=O)N2CCN(CC(=O)NC3CCCc4ccccc43)CC2)c(C)c1 (stereo unspecified) -44.6%, Fc1ccc(C(c2nnnn2Cc2cccs2)N2CCN(C3CCCC3)CC2)cc1 (stereo unspecified) -44.3%, Cc1ccc(C2CCN(C(=S)Nc3cccc(Cl)c3)C2)cc1 (stereo unspecified) -36.8%, Cc1ccc(S(=O)(=O)N2CC(=NN=C(N)N)C2)cc1 -44.1%, N#Cc1ccc(CSC2=NCCN2)cc1 -38.7%, CCN(C(=O)CN1C(=O)S/C(=C\c2ccccc2Cl)C1=O)C1CCS(=O)(=O)C1 (stereo unspecified) -46.2%, OC(CC#CCN1CCCC1)(c1ccccc1)c1ccccc1 -45.6%, CCNC(=S)NNC(=O)c1nn(C)c(C)c1Cl -37%, O=C(NC(c1ccccc1)c1cnccn1)C1CCN(CCOc2ccc(Cl)cc2Cl)CC1 (stereo unspecified) -47.3%, C[C@@H]1CN([C@@H](C)CO)C(=O)c2cc(NS(C)(=O)=O)ccc2O[C@H]1CN(C)Cc1ccc(Oc2ccccc2)cc1 -39%, CCOC(=O)C1(Cc2cccc(OC)c2)CCN(Cc2ccc(OC)c(O)c2)CC1 -46.1%, Cc1ccc(-n2cnc3cc(NCc4cccs4)ccc32)cc1 -31.6%, Cc1ccc(Nc2nc(C)c3c(n2)CC(C)CC3=O)c(C)c1 (stereo unspecified) -49.2%, CCCn1c(SC2C(=O)CC(C)(C)CC2=O)nc2c1c(=O)n(C)c(=O)n2C -34.3%, O=C(Nc1ccc(F)cc1)c1ccc(Br)c(S(=O)(=O)N2CCOCC2)c1 -35.2%, Cc1cccc(C)c1NC(=O)CNC(=O)c1ccc(N2CCCC2)c([N+](=O)[O-])c1 -34.8%, Cc1ccc(C)c(N2CCN(C(=O)CCCn3ncn4c(cc5occc54)c3=O)CC2)c1 -32.2%, COc1cc(OC)nc(Oc2ccccc2C(=O)Oc2ccc(F)cc2Cl)n1 -37.3%, COc1ccc(-c2sc3cc(OC)c(OC)cc3c2C#CCCO)cc1 -34.6%, CCc1ccc2[nH]c(=O)c(CN(Cc3nnnn3C3CCCC3)C3CCCCC3)cc2c1 -37.6%, O=C(CSc1nnc(-c2ccco2)n1Cc1ccccc1)OC1CCCCC1 -48.9%, CSc1ncc(CN2CCC(C(=O)Nc3cccc(-c4cscn4)c3)CC2)cn1 -30.7%

Activity change, active:
O=C1/C(=C/c2ccccc2)SC(=S)N1CCCC(=O)N1CCCCC1CCO (stereo unspecified) -58.8%, CN(c1ccccc1)c1ccc(/C=C/[N+](=O)[O-])cc1 -107%, O=C1NC[C@H](Cc2ccc(O)cc2)N(C[C@@H]2CCCN2C[C@H](Cc2ccccc2)N2C[C@H](Cc3ccc(O)cc3)N(CC3CCCCCC3)C(=O)C2=O)C1=O -56%, O=C(NC(=S)Nc1ccc(Cc2ccncc2)cc1)c1ccccc1F -74.1%, COc1ccc(CNCc2cccc(Oc3ccccc3)c2)cc1 -79.9%, COc1ccc(CC2=CC(=O)c3ccccc3C2=O)cc1 -97.8%, CCc1ccc(CNC(=O)Cn2nc(-c3ccccc3)ccc2=O)cc1 -87.2%, O=C(CCl)N(CCc1ccccc1)CCc1ccccc1 -103%, C[C@]1(O)CC(=O)C=C[C@H]1Nc1ccccc1 -104%, Cn1nc(-c2ccc(Cl)cc2)c2cc(C(=O)NCCCN3CCCC3)sc21 -88.7%, CCOc1cc(C(=O)Nc2ccc3c(c2)OCO3)ccc1OC(F)F -64.7%, Cc1ccc(C)c(Nc2cc(C)nc3ccccc23)c1 -70.3%, c1ccc(-c2ccc(CNC3CC3)cc2)cc1 -87.3%, COc1ccc(-n2nc3c(N4CCC(C(=O)NCCc5ccco5)CC4)nnc(C)c3c2C)cc1 -50.7%
